Results: PubChem BioAssay AID1347165 (National Center for Advancing Translational Sciences (NCATS), 2019)
About 5,700 (2.6%) of roughly 220,000 compounds were called active. Inconclusive means that the source gave no clear call. Such entries were picked first, then a sample of the others. Calls follow the shape of the dose curve; as a rule, active = well fitted inhibition curve with a large enough effect; inconclusive = small, poorly fitted or top-dose-only effect; inactive = no such curve, though single readings can be large or run the other way. Potencies beside an inconclusive call are fits to weak or partial responses and may not hold up.

Each compound was assayed against Lysine-specific demethylase 5B (Homo sapiens) (UniProt Q9UGL1) (assay: Primary screen for KDM5B Histone Demethylases FDH-coupled qHTS). Conditions: FDH-coupled NADH fluorescence (FDH is formaldehyde dehydrogenase); activity change, negative = inhibition: at 57.7 µM (top of the series) unless noted.
Chain of UniProt Q9UGL1 (Q9UGL1 whole entry, looked up): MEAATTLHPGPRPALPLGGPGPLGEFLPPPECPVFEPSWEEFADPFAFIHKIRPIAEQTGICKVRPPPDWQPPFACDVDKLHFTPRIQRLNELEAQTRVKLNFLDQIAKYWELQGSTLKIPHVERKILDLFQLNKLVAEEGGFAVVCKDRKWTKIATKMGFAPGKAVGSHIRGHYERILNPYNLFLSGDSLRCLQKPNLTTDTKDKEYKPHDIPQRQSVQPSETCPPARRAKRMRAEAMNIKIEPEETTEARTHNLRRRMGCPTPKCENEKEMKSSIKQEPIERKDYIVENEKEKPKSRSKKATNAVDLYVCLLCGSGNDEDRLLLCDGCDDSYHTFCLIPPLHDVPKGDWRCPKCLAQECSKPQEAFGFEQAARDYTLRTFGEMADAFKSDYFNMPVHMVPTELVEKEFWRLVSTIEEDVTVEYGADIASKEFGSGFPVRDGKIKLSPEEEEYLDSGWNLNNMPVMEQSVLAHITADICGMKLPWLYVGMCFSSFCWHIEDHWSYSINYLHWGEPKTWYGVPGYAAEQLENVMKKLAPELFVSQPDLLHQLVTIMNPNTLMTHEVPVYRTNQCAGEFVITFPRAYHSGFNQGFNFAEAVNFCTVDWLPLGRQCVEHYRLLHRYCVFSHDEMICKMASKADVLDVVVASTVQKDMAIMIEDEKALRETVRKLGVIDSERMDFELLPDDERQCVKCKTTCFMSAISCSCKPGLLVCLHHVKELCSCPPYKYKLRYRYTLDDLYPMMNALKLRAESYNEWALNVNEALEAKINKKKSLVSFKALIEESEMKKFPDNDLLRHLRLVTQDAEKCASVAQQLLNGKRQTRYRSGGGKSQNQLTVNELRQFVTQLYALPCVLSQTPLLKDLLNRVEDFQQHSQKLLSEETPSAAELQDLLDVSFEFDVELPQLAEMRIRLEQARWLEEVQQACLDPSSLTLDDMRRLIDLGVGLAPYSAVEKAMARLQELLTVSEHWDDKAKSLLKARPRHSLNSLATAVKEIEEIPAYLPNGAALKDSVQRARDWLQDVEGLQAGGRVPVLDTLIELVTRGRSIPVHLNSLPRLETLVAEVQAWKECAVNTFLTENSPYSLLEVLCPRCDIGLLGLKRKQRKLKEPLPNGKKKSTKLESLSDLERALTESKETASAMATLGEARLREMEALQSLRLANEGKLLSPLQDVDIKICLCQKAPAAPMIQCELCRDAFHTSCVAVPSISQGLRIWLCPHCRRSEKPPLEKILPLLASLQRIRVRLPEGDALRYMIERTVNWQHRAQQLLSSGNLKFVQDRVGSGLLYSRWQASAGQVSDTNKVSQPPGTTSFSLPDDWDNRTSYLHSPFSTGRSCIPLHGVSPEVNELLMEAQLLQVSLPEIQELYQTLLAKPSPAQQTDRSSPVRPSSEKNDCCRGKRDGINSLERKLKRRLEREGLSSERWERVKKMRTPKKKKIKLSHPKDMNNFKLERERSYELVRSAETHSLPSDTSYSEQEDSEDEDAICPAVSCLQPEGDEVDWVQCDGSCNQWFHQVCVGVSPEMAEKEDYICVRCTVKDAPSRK
Summary of the method: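 KDM5BΔAP (200 nM final) in 50 mM HEPES pH 7.5, 0.01% Tween-20 was preincubated 10 min at RT with compound over a concentration range. Substrate mix (H3K4me3 12.5 µM, α-KG 25 µM, Fe²⁺, ascorbate, NAD⁺, FDH) was added, and NADH fluorescence change over 30 min gave dose-response curves.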
Also: nearly all actives have a fitted effect of over 70% in size.
For activity change, negative = inhibition in this document: 0% is about no effect.
Potency is read from the fitted curve at half-maximal effect; tags tell the direction and shape of the fitted curve.

| Compound | Potency | activity change, negative = inhibition |
| --- | --- | --- |
| Cc1ccc(-n2c(-c3ccc(Br)cc3)nc3c(cnn3-c3ccccc3)c2=O)cc1 | inconclusive: 31.6 µM [inhibitor, partial curve, poor fit] |  |
| O=C(Nc1ccc(Cl)c(C(F)(F)F)c1)c1ccc(I)cc1 | inconclusive: 20 µM [inhibitor, partial curve, poor fit] |  |
| COc1cccc(CNC(=O)c2sc(-c3ccc(OC)c(OC)c3)nc2C)c1 | inconclusive: 10 µM [inhibitor, partial curve, poor fit] |  |
| COc1ncccc1-c1nc(-c2c(C)noc2C)cc2c1cc(C)n2CCN(C)C |  | inactive: -4240% [at 86.2 µM] |
| COc1ccc(C(=O)Nc2ccc3oc(-c4ccncc4)nc3c2)cc1 | inconclusive: 17.8 µM [inhibitor, partial curve, poor fit] |  |
| CCSc1ccc2cc(C(=O)O)[nH]c2c1 | inconclusive: 28.2 µM [inhibitor, partial curve, poor fit] |  |
| COC(=O)c1cc2c(Cl)c(Cl)ccc2[nH]1 | inconclusive: 39.8 µM [inhibitor, single point] |  |
| Cc1nn(C)c(C)c1CCN(C)C(=O)c1ccc(N2CC3CC(C2)[C@H]2CCCC(=O)N2C3)nc1 (stereo partly specified) | inconclusive: 28.2 µM [inhibitor, partial curve] |  |
| Cc1ncc(COC(=O)C(C)C)c2cc(-c3nc(-c4ccccc4F)no3)c(=O)oc12 |  | inactive: 39.1% |
| O=C(NCCc1ccccc1)c1noc(-c2ccc3c(c2)OCO3)n1 | inconclusive: 25.1 µM [inhibitor, single point] |  |
| CCCc1nn(-c2cccc(F)c2)c(OC(C)=O)c1-c1ccc(NC(C)=O)cc1 | inconclusive: 14.1 µM [inhibitor, partial curve] |  |
| CCN(Cc1ccccc1)C(=O)CCC1CCN(S(=O)(=O)c2ccccc2)CC1 | active: 25.1 µM |  |
| O=C(NCc1ccccc1)c1ccccc1CSc1nc2ccccc2o1 |  | inactive: -7.11% |
| O=C(Nc1ccc(Cl)cc1)c1cc(-c2ccc[nH]2)n[nH]1 |  | inactive: 7% |
| CCOc1ccccc1CNC(=O)c1noc(-c2ccc3c(c2)OCO3)n1 | active: 31.6 µM |  |
| COc1cccc(C2CC(=O)Nc3c2c(=O)n(C)c2nc4ccccc4n32)c1 (stereo unspecified) | inconclusive: 35.5 µM [inhibitor, partial curve, poor fit] |  |
| O=S1(=O)c2c(cccc2N2CCSCC2)Oc2ccccc2CN1Cc1cn(Cc2ccc(C(F)(F)F)cc2)nn1 | inconclusive: 25.1 µM [inhibitor, partial curve, poor fit] |  |
| COc1ccccc1-c1cc(C(F)(F)F)nc(S(=O)(=O)CCCC(=O)Nc2ccc(F)cc2F)n1 | inconclusive: 2.24 µM [inhibitor, full curve, poor fit] |  |
| COc1ccc(CNC(=O)C2CCN(c3cc(C(F)(F)F)nc(C)n3)CC2)c(OC)c1 | inconclusive: 31.6 µM [inhibitor, single point] |  |
| O=C(Cn1c(=O)n(Cc2nc(-c3ccccc3)no2)c(=O)c2cc3c(cc21)OCO3)Nc1cccc(C(F)(F)F)c1 | inconclusive: 25.1 µM [inhibitor, partial curve, poor fit] |  |
| COc1ccc(-c2ccc(CCC(=O)O)n2-c2cc(Cl)ccc2O)cc1 | inconclusive: 25.1 µM [inhibitor, partial curve, poor fit] |  |
| Cc1cccc(CNC(=O)Cn2ccc3cc(S(=O)(=O)N4CCC(C)CC4)ccc32)c1 | inconclusive: 39.8 µM [inhibitor, single point] |  |

| Compound | Potency | activity change, negative = inhibition |
| --- | --- | --- |
| Cc1nc(CN2C[C@H](C(=O)N3CCN(c4ccccn4)CC3)C[C@@H]2c2ccc(F)cc2)cs1 | active: 28.2 µM |  |
| O=C(/C=C/c1cccs1)OC(C(=O)c1c[nH]c2ccccc12)c1ccccc1 (stereo unspecified) | inconclusive: 28.2 µM [inhibitor, single point] |  |
| Cc1ccc(NC(=O)c2cc(=O)c3ccccc3o2)cc1S(=O)(=O)N1CCCCC1 | inconclusive: 31.6 µM [inhibitor, single point] |  |
| O=C(NCCC(c1ccccc1)c1ccccc1)c1cc(-c2ccccc2)nc2ccccc12 |  | inactive: -10.9% |
| CCCc1nnc([C@H]2CCN(Cc3ncc[nH]3)C2)o1 | inconclusive: 31.6 µM [inhibitor, partial curve, poor fit] |  |
| Fc1ccc(-c2ccc3ncc(Nc4ccc5c(c4)OCO5)n3n2)cc1 |  | inactive: -36.8% [at 86.2 µM] |
| Cc1cc(C)cc(OCC(=O)NNC(=S)NC(=O)C2CC2)c1 | inconclusive: 12.6 µM [inhibitor, partial curve, poor fit] |  |
| Cc1ccc(C2=C(O)C(=O)N(Cc3ccccn3)C2c2ccccc2)cc1 (stereo unspecified) | inconclusive: 31.6 µM [inhibitor, single point] |  |
| COc1ccc(/C=C/C(=O)OCCCC(c2ccc(F)cc2)c2ccc(F)cc2)cc1OC | inconclusive: 35.5 µM [inhibitor, single point] |  |
| Cc1cccc(NC(=O)c2oc3ccc(S(=O)(=O)N4CCC5(CC4)OCCO5)cc3c2C)c1C | inconclusive: 31.6 µM [inhibitor, partial curve, poor fit] |  |
| CC1CCCN(CC(=O)Nc2oc3ccccc3c(=O)c2-c2ccc(F)cc2)C1 (stereo unspecified) |  | inactive: -1.49% |
| CN(C)C[C@@H]1CN(c2ncccn2)C[C@H]1NC(=O)c1ccccc1C(F)(F)F | active: 22.4 µM |  |
| COc1cccc(C(=O)NC2CCN(c3nc4ncccc4o3)CC2)c1 | inconclusive: 20 µM [inhibitor, partial curve, poor fit] |  |
| Cc1ccc2c(c1)-c1ncc(C(=O)c3cc(Br)ccc3O)cc1CO2 |  | inconclusive: -37.1% [inhibitor] |
| COc1cccc(COC2CN(Cc3ccccn3)C(=O)CN(C(=O)C3=NN(C)C(=O)CC3)C2)c1 (stereo unspecified) | inconclusive: 25.1 µM [inhibitor, single point] |  |
| COc1ccc([N+](=O)[O-])c(S(=O)(=O)c2ccccc2)n1 | inconclusive: 31.6 µM [inhibitor, partial curve, poor fit] |  |
| COc1ccc(NC(=O)C2CCN(c3cnn(C)c(=O)c3)C2)cc1F (stereo unspecified) |  | inactive: -5.58% |
| C=CCn1c(Sc2ncc([N+](=O)[O-])s2)n[nH]c1=O | inconclusive: 17.8 µM [inhibitor, partial curve, poor fit] |  |
| Cc1ccc(OCC(=O)N(C)CC(=O)N(CC(C)C)c2c(N)n(CC(C)C)c(=O)[nH]c2=O)cc1C |  | inactive: -11.7% |
| CCCc1cc(=O)oc2cc(OS(=O)(=O)c3ccc(F)cc3Cl)ccc12 |  | inactive: -15.3% |
| Cc1cccc(CNC(=O)c2ccc(NC(=O)N3CCSc4ncccc43)cc2)c1 | inconclusive: 35.5 µM [inhibitor, partial curve, poor fit] |  |
| O=C(NC1CCN(c2cc(-c3ccc(F)cc3)[nH]n2)C1)c1ccc2cc[nH]c2c1 (stereo unspecified) | inconclusive: 11.2 µM [inhibitor, partial curve, poor fit] |  |

| Compound | Potency | activity change, negative = inhibition |
| --- | --- | --- |
| CC(=O)c1cccc(Nc2ccc3cc(S(=O)(=O)N4CCCC4)ccc3n2)c1 | inconclusive: 31.6 µM [inhibitor, partial curve, poor fit] |  |
| COc1ccc(NC(=O)c2ccc3c(c2)OCC(=O)N(C)C3)c(F)c1 |  | inactive: 8.61% [at 86.2 µM] |
| c1cncc(-c2ccnc(NCCc3csc(-c4ccncc4)n3)n2)c1 | inconclusive: 28.2 µM [inhibitor, partial curve, poor fit] |  |
| Cc1ccc2c(CSc3nnc(NC4CC4)s3)cc(=O)oc2c1 |  | inactive: -1.29% |
| CCOC(=O)c1cc(S(=O)(=O)Nc2ccccc2OCC)[nH]n1 | inconclusive: 2.24 µM [inhibitor, full curve, poor fit] |  |
| COc1cccc([S+](=O)([O-])N2CCC3(C2)NC(=O)c2ccccc2CO3)c1 (stereo unspecified) |  | inactive: -23.2% |
| O=S(=O)(NC1=NCN(Cc2cccnc2)CN1)c1ccccc1 |  | inactive: -17.6% |
| Cc1[nH]n(-c2ccccc2)c(=O)c1N=Nc1ccc(C(=O)O)cc1 |  | inactive: -5.49% |
| CC(C)c1nc(N2CCN(C(=O)C(=O)NCCCO)CC2)c(C#N)c2c1CCCC2 |  | inactive: 538% |
| O=C(O)Cn1cc(-c2ccccc2)ncc1=O | inconclusive: 22.4 µM [inhibitor, partial curve, poor fit] |  |
| Cc1ccc(C(=O)NC(c2cccnc2)c2ccc(C)c(C)c2)cc1 (stereo unspecified) |  | inactive: 2.8% |
| COc1cccc(CCC(=O)N2C[C@@H]3CC[C@H](C2)N(CC2CCC2)C3=O)c1 |  | inactive: -20.6% |
| COc1cccc(N2CC3(COCC2=O)CN(c2ccc(C(F)(F)F)cn2)C3)n1 | inconclusive: 39.8 µM [inhibitor, partial curve, poor fit] |  |
| CN1CC(=O)N(C2CCNC2)Cc2c(NCc3ccccn3)ncnc21 (stereo unspecified) | inconclusive: 56.2 µM [inhibitor, partial curve, poor fit] |  |
| CCNC(=O)[C@@H]1C[C@H](NC(=O)c2ncoc2C)CN1CCCn1cnnn1 | inconclusive: 35.5 µM [inhibitor, partial curve] |  |
| CN(C)CCNC(=O)c1ccc(Cn2c(=O)c3cccn3c3cccnc32)cc1 | inconclusive: 39.8 µM [inhibitor, single point] |  |
| O=C(NCc1cccnc1)c1nc(-c2ccc(F)cc2)c2cnccn12 | active: 28.2 µM |  |
| CSc1nc(C(C)C)nc(C)c1C(=O)Nc1cccc(Br)c1 |  | inactive: 6.62% |
| CCOC(=O)CS(=O)(=O)c1nc(-c2ccc(F)cc2)cc(C(F)(F)F)n1 | inconclusive: 20 µM [inhibitor, partial curve, poor fit] |  |
| Cn1c2c(c3ccccc31)CN(C(=O)Nc1cccc(Br)c1)CC2 | inconclusive: 14.1 µM [inhibitor, partial curve, poor fit] |  |
| O=C(COc1ccccc1)Nc1cccc(-c2nc3ccccc3o2)c1 |  | inactive: -11.9% |
| CC(C)c1ccc(/C=N/O)cc1 |  | inactive: 12.8% |
